The campaign covered roughly 350,000 compounds. About 31,000 (8.9%) were called active. The inconclusive results got no clear call from the source; some entries with a clear call stand among them for comparison. Calls come from the whole dose curve; as a rule, active = well fitted inhibition curve with a large enough effect; inconclusive = small, poorly fitted or top-dose-only effect; inactive = no such curve, though single readings can be large or run the other way. Potencies of inconclusive entries are doubtful fits and often do not repeat.
These compounds were tested against Histone-lysine N-methyltransferase EHMT2 (Homo sapiens) (UniProt Q96KQ7) (assay: qHTS Assay for Inhibitors of Histone Lysine Methyltransferase G9a). Conditions: G9a H3K9 monomethylation, AlphaScreen, 2 h; activity, negative = inhibition: at 59 µM (top of the series) unless noted.
Procedure, shortened: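 Step 1: enzyme (final 20 nM) with compound, 15 min RT. Step 2: substrate peptide 500 nM and SAM 20 uM, 2 h RT. Step 3: anti-H3K9me1 antibody and AlphaScreen beads, 10 min, then plate read.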
% is set by controls: 0 for no effect and ±100 for the full control effect; potency is the fitted concentration of half-maximal effect; tags give direction and shape of the fitted curve.
Note: nearly all actives have a fitted effect of over 75% in size.

UniProt Q96KQ7, sequence (Q96KQ7 whole entry, looked up): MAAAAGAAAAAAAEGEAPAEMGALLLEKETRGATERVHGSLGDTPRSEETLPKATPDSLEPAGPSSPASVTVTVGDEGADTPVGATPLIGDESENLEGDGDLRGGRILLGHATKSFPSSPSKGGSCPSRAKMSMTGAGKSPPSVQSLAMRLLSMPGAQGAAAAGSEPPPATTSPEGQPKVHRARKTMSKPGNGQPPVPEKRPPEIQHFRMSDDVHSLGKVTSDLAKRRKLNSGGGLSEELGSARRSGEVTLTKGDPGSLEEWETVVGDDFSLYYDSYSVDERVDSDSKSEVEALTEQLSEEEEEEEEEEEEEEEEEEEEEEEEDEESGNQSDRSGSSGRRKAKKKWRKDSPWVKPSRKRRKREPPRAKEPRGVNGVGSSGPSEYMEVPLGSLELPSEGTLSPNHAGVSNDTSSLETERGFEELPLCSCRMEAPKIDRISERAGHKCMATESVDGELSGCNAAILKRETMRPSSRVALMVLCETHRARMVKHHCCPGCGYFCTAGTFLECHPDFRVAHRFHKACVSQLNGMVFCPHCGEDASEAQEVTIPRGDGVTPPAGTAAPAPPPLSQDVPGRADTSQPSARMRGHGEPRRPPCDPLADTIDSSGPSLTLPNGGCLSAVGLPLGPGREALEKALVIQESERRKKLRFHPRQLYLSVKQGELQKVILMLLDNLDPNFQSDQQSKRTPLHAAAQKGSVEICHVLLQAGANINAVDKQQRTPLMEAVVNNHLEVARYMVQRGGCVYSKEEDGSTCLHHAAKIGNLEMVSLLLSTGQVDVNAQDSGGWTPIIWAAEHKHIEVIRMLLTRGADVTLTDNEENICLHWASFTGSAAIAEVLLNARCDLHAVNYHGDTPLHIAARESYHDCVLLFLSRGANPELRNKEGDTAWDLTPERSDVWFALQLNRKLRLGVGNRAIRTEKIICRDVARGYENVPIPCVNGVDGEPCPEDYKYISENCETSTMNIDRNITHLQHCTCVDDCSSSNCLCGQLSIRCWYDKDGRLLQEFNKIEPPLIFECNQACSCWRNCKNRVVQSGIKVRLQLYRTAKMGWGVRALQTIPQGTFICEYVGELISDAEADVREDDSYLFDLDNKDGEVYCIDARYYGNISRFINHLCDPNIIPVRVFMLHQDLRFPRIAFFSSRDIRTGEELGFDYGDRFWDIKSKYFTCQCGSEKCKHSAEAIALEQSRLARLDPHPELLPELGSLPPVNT

SMILES	Potency	activity, negative = inhibition
CN(CC(=O)Nc1cccc(F)c1)CC(=O)Nc1ccccc1Oc1ccccc1	active: 8.91 µM	
CC(=O)c1cc(C#N)c(N2CCCCC2)nc1C	inconclusive: 100 µM [inhibitor, partial curve, poor fit]	
CCN1CCOC(=O)C1CC(=O)Nc1cc(C)cc(C)c1 (configuration not stated)	active: 3.55 µM	
CCCCCCCCCCC/C=C\C(C)(C)/C=C\CCCC(=O)O	inactive	
CCc1nnc(NS(=O)(=O)c2ccc(NC(=S)NC(=O)c3ccccc3)cc2)s1	inconclusive: 10 µM [inhibitor, single point]	
COc1ccc(S(=O)(=O)Cc2ccc(C(=O)NCc3ccccn3)o2)cc1	inconclusive: 89.1 µM [inhibitor, single point]	
COc1ccc(C)cc1NC(=O)COC(=O)c1ccc([N+](=O)[O-])o1	inactive	
CCOC(=O)NN1C(=O)c2ccccc2NC1c1cccnc1 (configuration not stated)	inconclusive: 35.5 µM [inhibitor, partial curve, poor fit]	
O=C(Nc1ccccc1F)Oc1cccc(OC(=O)Nc2ccccc2F)c1	inactive	
COc1ccccc1CNC(=O)c1ccc2c(c1)nc(C)n2-c1ccccc1OC	inconclusive: 31.6 µM [inhibitor, single point]	
CCOC(=O)c1nnn(CC(=O)Nc2ccccc2)c1C(=O)OCC	inconclusive: 44.7 µM [inhibitor, partial curve, poor fit]	
Cc1ccc(CSc2nc3c([nH]c4ccccc43)c(=O)n2C)cc1	inactive	
CC(NS(=O)(=O)c1ccc(NC(=O)N2CCCCC2)cc1)c1ccccc1 (configuration not stated)	inactive	
COc1cc(Nc2ncc3c(n2)CCN(Cc2cc(Br)cs2)C3)cc(OC)c1	inactive	
COC(=O)c1ccccc1NC(=O)c1ccc2c(c1)CCN2S(C)(=O)=O	inactive	
Cc1sc(NC(=O)c2ccco2)c(C(Nc2ccccn2)c2ccccc2)c1C (configuration not stated)	active: 44.7 µM	
CCCCN=c1scc(-c2ccc3c(c2)NC(=O)CO3)n1N=C1CCCC1	active: 8.91 µM	
CCOc1ccc(NC(=O)Cn2c(C)cc3ccccc3c2=O)cc1	inactive	
CCOC(=O)c1c(NC(=O)COC(=O)c2cc(OC)c(OC)cc2[N+](=O)[O-])sc(C)c1C	inactive	
COc1cccc(C(=O)Nc2cccc3ccccc23)c1OC	inconclusive: 0.316 µM [inhibitor, partial curve, poor fit]	
N#C/C(=C\C1=C(N2CCOCC2)C(=C\c2ccc(Cl)cc2)/CC1)C(=O)Nc1ccccc1F	active: 10 µM	
CCN(C(=O)COC(=O)C1CC1C)c1c(N)n(Cc2ccccc2)c(=O)[nH]c1=O (configuration not stated)	inconclusive: 44.7 µM [inhibitor, partial curve, poor fit]	
CCOc1ccc(OCCSc2nnnn2C2CCCCC2)cc1	inactive	
COc1cc(C(=O)NNC(=S)NC(=O)/C=C/c2ccccc2)cc(OC)c1OC	active: 31.6 µM	

SMILES	Potency	activity, negative = inhibition
Cc1ccc(Cl)cc1Nc1nc(-c2sc(NC(=O)c3ccco3)nc2C)cs1	inconclusive: 17.8 µM [inhibitor, partial curve]	
COc1cc(/C=N/NC(=O)C23CC4CC(CC(C4)C2)C3)cc(Br)c1O	inconclusive: 5.62 µM [inhibitor, full curve, poor fit]	
Cc1ccc(/C=N/NC(=O)Cc2cccn2C)s1	inconclusive: 14.1 µM [inhibitor, partial curve]	
O=C(CSc1ncccc1C(=O)O)c1ccccc1	inconclusive: 11.2 µM [inhibitor, partial curve, poor fit]	
CCOC(=O)C1CCN(Cc2nnc(-c3ccccc3C)o2)CC1	inconclusive: 79.4 µM [inhibitor, single point]	
O=C(Nc1cccc(F)c1)c1c(O)c2ccccc2[nH]c1=O	inactive	
Nc1nc2ccc(O)cc2s1	inconclusive: 39.8 µM [inhibitor, single point]	
COc1ccc(C(=O)Nc2cccc(OCc3cc(=O)n4c5c(sc4n3)CCCC5)c2)cc1	inactive	
CCOc1cc(/C=C2/C(=O)ON=C2C)ccc1OCc1ccc(F)cc1	inconclusive: 44.7 µM [inhibitor, partial curve, poor fit]	
Cc1ccc(/C=N/c2sc3c(c2C#N)CCC3)s1		inconclusive: -65.8% [inhibitor] [at 12.7 µM]
CC1=C(C(=O)Nc2cccnc2)C(c2ccc(Cl)cc2)n2nc(-c3ccccc3)nc2N1 (configuration not stated)	inactive	
Cc1ccn(-c2n[nH]c(C)c2[N+](=O)[O-])n1	inconclusive: 79.4 µM [inhibitor, single point]	
COc1ccc2c(C)cc(N3CCN(c4ccc(F)cc4)CC3)nc2c1	inactive	
CCC(NC(=O)C1CCCC1)c1ccc(C)cc1 (configuration not stated)	inactive	
O=c1c2cc([N+](=O)[O-])ccc2nc(CN2CCN(c3ccccn3)CC2)n1-c1ccccc1F	inconclusive: 31.6 µM [inhibitor, partial curve]	
O=C(NC1CCCCCC1)c1c(O)c2ccccc2[nH]c1=O	inconclusive: 70.8 µM [inhibitor, partial curve]	
CCOc1cc(C)nc(N2CCCC(C(=O)NCc3ccccc3F)C2)n1 (configuration not stated)	inconclusive: 1.41 µM [inhibitor, single point]	
O=C(CCC(=O)c1ccc[nH]1)c1ccc(Cl)cc1	inconclusive: 89.1 µM [inhibitor, single point]	
CC(C)C(NC(=O)c1cccc(S(=O)(=O)N2CCOCC2)c1)C(=O)NCc1ccc(Cl)cc1 (configuration not stated)		inactive: 24.4% [at 2.33 µM]
O=C(NCC(=O)N1CCN(c2cccc(Cl)c2)CC1)c1ccc(Br)o1	inactive	
CCCN1C2=C(C(=O)CCC2)C(c2ccc(O)c(Br)c2)C2=C1CCCC2=O	inconclusive: 31.6 µM [inhibitor, single point]	
O=C(CSc1nc2ccccc2c(=O)n1-c1ccc(F)cc1)Nc1ccc(Cl)c(S(=O)(=O)N2CCOCC2)c1	inconclusive: 79.4 µM [inhibitor, single point]	
CCn1c(=O)cc(SCC(=O)NCc2ccc3c(c2)OCO3)c2ccccc21	inactive	
O=C(O)[C@H]1CCC(=O)N1Cc1ccco1	inconclusive: 39.8 µM [inhibitor, single point]	

SMILES	Potency	activity, negative = inhibition
N#C/C(=C(/O)COc1ccc(Cl)cc1)c1nc2ccccc2s1	inconclusive: 44.7 µM [inhibitor, partial curve, poor fit]	
O=C(Nc1ccccc1)Nc1ccc2ccccc2c1	inconclusive: 70.8 µM [inhibitor, partial curve, poor fit]	
c1ccc(CN2CCN(c3ncnc4nc[nH]c34)CC2)cc1	inconclusive: 31.6 µM [inhibitor, single point]	
CCc1ccc2c(c1)C1(NN=C(c3ccc(C)cc3)S1)C(=O)N2 (configuration not stated)	active: 28.2 µM	
CCOc1ccc(NC(=O)c2ccccc2NS(=O)(=O)c2ccc(F)cc2)c([N+](=O)[O-])c1	inconclusive: 22.4 µM [inhibitor, single point]	
Cc1cc(=O)oc2cc(OCC(=O)OCC(=O)N3CCc4ccccc43)ccc12	inconclusive: 39.8 µM [inhibitor, partial curve, poor fit]	
CC1=C(c2ccc(C)cc2)S(=O)(=O)NC1=NCc1cccc(F)c1	inactive	
NC(=S)NNC(=O)COc1ccccc1O	inconclusive: 2.24 µM [inhibitor, partial curve, poor fit]	
COc1cc(NC(=O)CSc2nc3cc(C)ccc3cc2C)c(C(=O)O)cc1OC	inconclusive: 35.5 µM [inhibitor, single point]	
COC(=O)c1ccc(NC(=O)CC2C(=O)N(c3ccc(Cl)cc3)C(=O)N2Cc2ccco2)cc1 (configuration not stated)	inconclusive: 7.08 µM [inhibitor, partial curve, poor fit]	
O=C(NNc1nc2ccccc2s1)c1ccc(F)cc1	inactive	
O=C(COc1cccc(NC(=O)c2ccco2)c1)c1ccccc1	inconclusive: 50.1 µM [inhibitor, partial curve]	
CCN1CCN(C(=O)c2ccc(CN(c3ccc(C)c(C)c3)S(C)(=O)=O)cc2)CC1	inconclusive: 28.2 µM [inhibitor, partial curve]	
CC1=CCC(C(=O)O)C(C(=O)O)C1 (configuration not stated)	inconclusive: 70.8 µM [inhibitor, single point]	
COc1cc2c(cc1OC)CN(CC(=O)Nc1cccc([N+](=O)[O-])c1)CC2	inconclusive: 50.1 µM [inhibitor, partial curve, poor fit]	
COC(=O)c1nc(NC(=O)c2ccc(Cl)cc2)n[nH]1	inconclusive: 3.16 µM [inhibitor, partial curve, poor fit]	
CC(=O)N1c2ccccc2C(C)=CC1(C)C	inconclusive: 0.251 µM [inhibitor, partial curve, poor fit]	
CCN(CC)C(=O)Cn1cc(SCC(=O)Nc2cc(C)on2)c2ccccc21	inactive	
CC(C)(C)n1nnnc1C(c1cccnc1)N1CCN(c2ccccn2)CC1 (configuration not stated)	inactive	
CCc1ccc2c(c1)C1(NN=C(c3cccc4ccccc34)S1)C(=O)N2 (configuration not stated)	inconclusive: 25.1 µM [inhibitor, single point]	
CCn1c(CSc2ncccn2)nnc1SCC(=O)N1CCc2ccccc21	inactive	
COc1ccc(N(CC(=O)Nc2ccccc2SC)S(C)(=O)=O)cc1OC		inconclusive: -59.1% [inhibitor]
CCc1cc(=O)oc2c3c(cc(OCC(=O)NCc4ccccn4)c12)OC(C)(C)CC3		inactive: -1.42% [at 12.7 µM]
CCCCn1c(N)c(N(CC(C)C)C(=O)C(C)SCc2nc3sc(C)c(C)c3c(=O)[nH]2)c(=O)[nH]c1=O (configuration not stated)	active: 35.5 µM	

Reference: PubChem BioAssay AID504332 (National Center for Advancing Translational Sciences (NCATS), 2011)
